Measurements as given in paper PMC12212275.
Results are given in words; binding and its absence hold for the method and conditions named. For some assays here: Binding seen in cells or lysates may run through a third protein. Some binding calls cover weakened binding; strength is not graded here. For some assays here: Sequences can lack the tags named with a protein. Each block holds one molecule with its values, some of them ahead of it.

By UniProt entry, the sequences of proteins in these tests, tags left out.
UniProt O00560: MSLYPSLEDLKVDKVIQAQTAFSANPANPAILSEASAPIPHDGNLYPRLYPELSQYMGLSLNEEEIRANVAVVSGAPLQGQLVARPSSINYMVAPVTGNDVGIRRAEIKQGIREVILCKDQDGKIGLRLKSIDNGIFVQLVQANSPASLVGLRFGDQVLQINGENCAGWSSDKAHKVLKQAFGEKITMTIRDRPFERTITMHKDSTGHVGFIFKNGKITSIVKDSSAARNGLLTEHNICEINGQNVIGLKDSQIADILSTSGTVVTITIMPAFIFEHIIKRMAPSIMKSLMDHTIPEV
UniProt P54105: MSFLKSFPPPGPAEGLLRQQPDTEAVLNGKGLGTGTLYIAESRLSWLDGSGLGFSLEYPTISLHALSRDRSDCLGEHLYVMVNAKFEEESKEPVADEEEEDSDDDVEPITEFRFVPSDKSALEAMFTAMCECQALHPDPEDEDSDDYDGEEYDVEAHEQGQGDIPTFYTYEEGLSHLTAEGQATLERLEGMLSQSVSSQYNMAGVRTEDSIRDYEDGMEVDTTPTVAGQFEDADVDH

Columns and labels:
HA-tagged TBK1 = biological target: T1, HA-tagged TBK1 (UniProt Q9UHD2); test: co-IP; reciprocal IP in co-transfected HEK293T: TBK1 precipitated, syntenin-1 detected by immunoblot (Fig. 1D)
T1 sequence: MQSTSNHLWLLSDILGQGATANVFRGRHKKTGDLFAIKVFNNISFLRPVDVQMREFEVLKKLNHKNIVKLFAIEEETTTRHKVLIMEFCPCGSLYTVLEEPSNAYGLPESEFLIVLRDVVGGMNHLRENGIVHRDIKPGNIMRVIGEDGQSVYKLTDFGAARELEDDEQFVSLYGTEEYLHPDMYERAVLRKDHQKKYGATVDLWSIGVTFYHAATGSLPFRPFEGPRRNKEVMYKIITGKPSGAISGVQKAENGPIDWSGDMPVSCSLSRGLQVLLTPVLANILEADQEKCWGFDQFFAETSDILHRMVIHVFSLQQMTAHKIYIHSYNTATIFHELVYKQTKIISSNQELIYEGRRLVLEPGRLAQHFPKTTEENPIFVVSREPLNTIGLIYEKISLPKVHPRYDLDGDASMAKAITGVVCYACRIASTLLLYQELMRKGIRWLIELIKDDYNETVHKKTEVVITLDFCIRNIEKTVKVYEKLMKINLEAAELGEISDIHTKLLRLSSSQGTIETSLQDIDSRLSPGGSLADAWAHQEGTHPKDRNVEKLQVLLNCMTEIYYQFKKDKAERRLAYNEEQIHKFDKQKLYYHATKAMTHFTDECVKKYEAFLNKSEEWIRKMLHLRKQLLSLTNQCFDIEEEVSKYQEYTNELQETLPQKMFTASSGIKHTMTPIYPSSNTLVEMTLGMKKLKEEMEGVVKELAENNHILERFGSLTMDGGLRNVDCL

[1] = biological target: Flag-tagged syntenin-1 (human) (UniProt O00560); test: co-IP; HEK293T co-transfected; lysate with anti-Flag magnetic beads overnight at 4 °C (Flag-syntenin-1 precipitated); washed with 1% Triton X-100 in PBS; HA-tagged partner detected by immunoblot
[2] = biological target: GST-HA-syntenin-1 (human) (UniProt O00560); test: pull-down; 0.5 μg HA-syntenin-1 or HA-CLNS1A held on anti-HA magnetic beads (20 mM Tris pH 7.5, 150 mM NaCl, 10% glycerol, 1 h at room temperature); 0.25 μg GST-TBK1 added, 4 °C overnight; washed with 1% Triton X-100 in PBS; Western blot and Coomassie staining; both purified
GST-HA-CLNS1A = GST-HA-CLNS1A (UniProt P54105); test: as above
[3] = biological target: endogenous syntenin-1 (A549) (human (endogenous in A549)) (UniProt O00560); test: co-IP; endogenous proteins in A549 cells; IP with an anti-syntenin-1 antibody; TBK1 detected by immunoblot

Molecule: Flag-tagged syntenin-1 (from UniProt O00560 1-298)
binding (HA-tagged TBK1): binds

B2: GST-TBK1 (enzyme, UniProt Q9UHD2 1-729)
chain: T1 sequence
binding [2]: binds
binding (GST-HA-CLNS1A): no binding (tested: 0.25 μg GST-TBK1 with 0.5 μg HA-CLNS1A)

Other lines, results leading:

binding [1]: binds
B1: HA-tagged TBK1 (enzyme, UniProt Q9UHD2 1-729)
chain: T1 sequence

binding [3]: binds
B3: endogenous TBK1 (A549) (enzyme, UniProt Q9UHD2 1-729)
chain: T1 sequence
